Article PMC12820563, “FoxP3 forms a head-to-head dimer in vivo and stabilizes its multimerization on adjacent microsatellites”
The other results are listed elsewhere or left out.

Each sequence was assayed against T1, MBP-FoxP1dN (Mus musculus, UniProt P58462 326-579) (assay: PD-seq (MBP pull-down with sequencing); 20 mM Tris-HCl pH 7.5, 100 mM NaCl, 1.5 mM MgCl2, 0.4 uM protein, 0.1 uM dsDNA library, 30 min, room temperature, amylose pull-down; high values mean tight binding). Settings: protein: recombinant; tags: His6-MBP; chain copies: 2; dsDNA, one strand shown.
T1 sequence: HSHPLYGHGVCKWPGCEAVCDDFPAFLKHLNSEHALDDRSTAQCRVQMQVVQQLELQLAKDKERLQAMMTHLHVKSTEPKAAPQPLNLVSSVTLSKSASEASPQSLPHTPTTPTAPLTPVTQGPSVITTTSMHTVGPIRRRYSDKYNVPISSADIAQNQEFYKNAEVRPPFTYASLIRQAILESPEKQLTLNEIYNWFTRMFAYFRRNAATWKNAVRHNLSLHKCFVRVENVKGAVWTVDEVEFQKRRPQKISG
In short: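 Binding is the reads-per-million enrichment of pull-down relative to input, pooled across replicates. For this, 0.4 µM His6-MBP-tagged mouse FoxP3 or FoxP1 fragment lacking the N-terminus, made in E. coli, was incubated with 0.1 µM Klenow-filled double-stranded degenerate DNA library for 30 min at room temperature in Tris pH 7.5 buffer with NaCl and MgCl2. Complexes bound to amylose resin were washed three times before proteinase K released the DNA for PCR barcoding and Illumina sequencing.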

Sequence	binding signal
GATGATTGTTCTCCCAGCTGATGAATTAACGTAATCGAGTAAACAAATTTTCCTAATCTTTCTGTTCAAGCGCCATCTAC	1.59 RPM ratio (pull-down/input)
GATGATTGTTCTCCCAGCTGATGAATTGGATGAGTCGAGTAAACAAATTTTCCTAATCTTTCTGTTCAAGCGCCATCTAC	0.883 RPM ratio (pull-down/input)
GATGATTGTTCTCCCAGCTGATGAATTTGCGACATCGAGTAAACAAATTTTCCTAATCTTTCTGTTCAAGCGCCATCTAC	1.18 RPM ratio (pull-down/input)
GATGATTGTTCTCCCAGCTGATGAATTTTAGCTCTCGAGTAAACAAATTTTCCTAATCTTTCTGTTCAAGCGCCATCTAC	0.796 RPM ratio (pull-down/input)
GATGATTGTTCTCCCAGCTGATGAATTCAGACGTTCGAGTAAACAAATTTTCCTAATCTTTCTGTTCAAGCGCCATCTAC	0.787 RPM ratio (pull-down/input)
GATGATTGTTCTCCCAGCTGATGAATTGACAGGCTCGAGTAAACAAATTTTCCTAATCTTTCTGTTCAAGCGCCATCTAC	1.03 RPM ratio (pull-down/input)
GATGATTGTTCTCCCAGCTGATGAATTGTGGTATTCGAGTAAACAAATTTTCCTAATCTTTCTGTTCAAGCGCCATCTAC	1.22 RPM ratio (pull-down/input)
GATGATTGTTCTCCCAGCTGATGAATTCTACACCTCGAGTAAACAAATTTTCCTAATCTTTCTGTTCAAGCGCCATCTAC	0.866 RPM ratio (pull-down/input)
GATGATTGTTCTCCCAGCTGATGAATTGCTGTTGTCGAGTAAACAAATTTTCCTAATCTTTCTGTTCAAGCGCCATCTAC	2.5 RPM ratio (pull-down/input)
GATGATTGTTCTCCCAGCTGATGAATTACCAAGATCGAGTAAACAAATTTTCCTAATCTTTCTGTTCAAGCGCCATCTAC	0.971 RPM ratio (pull-down/input)
GATGATTGTTCTCCCAGCTGATGAATTTCACTGCTCGAGTAAACAAATTTTCCTAATCTTTCTGTTCAAGCGCCATCTAC	0.772 RPM ratio (pull-down/input)
GATGATTGTTCTCCCAGCTGATGAATTTTCCAAGTCGAGTAAACAAATTTTCCTAATCTTTCTGTTCAAGCGCCATCTAC	0.885 RPM ratio (pull-down/input)
GATGATTGTTCTCCCAGCTGATGAATTAGTATGATCGAGTAAACAAATTTTCCTAATCTTTCTGTTCAAGCGCCATCTAC	1.17 RPM ratio (pull-down/input)
GATGATTGTTCTCCCAGCTGATGAATTCAAGACGTCGAGTAAACAAATTTTCCTAATCTTTCTGTTCAAGCGCCATCTAC	0.855 RPM ratio (pull-down/input)
GATGATTGTTCTCCCAGCTGATGAATTGCACAATTCGAGTAAACAAATTTTCCTAATCTTTCTGTTCAAGCGCCATCTAC	1.44 RPM ratio (pull-down/input)
GATGATTGTTCTCCCAGCTGATGAATTACGGTCATCGAGTAAACAAATTTTCCTAATCTTTCTGTTCAAGCGCCATCTAC	0.994 RPM ratio (pull-down/input)
GATGATTGTTCTCCCAGCTGATGAATTTGCGCGCTCGAGTAAACAAATTTTCCTAATCTTTCTGTTCAAGCGCCATCTAC	1.02 RPM ratio (pull-down/input)
GATGATTGTTCTCCCAGCTGATGAATTTACTTCTTCGAGTAAACAAATTTTCCTAATCTTTCTGTTCAAGCGCCATCTAC	1.33 RPM ratio (pull-down/input)
GATGATTGTTCTCCCAGCTGATGAATTGCATTTGTCGAGTAAACAAATTTTCCTAATCTTTCTGTTCAAGCGCCATCTAC	1.43 RPM ratio (pull-down/input)
GATGATTGTTCTCCCAGCTGATGAATTGACACTGTCGAGTAAACAAATTTTCCTAATCTTTCTGTTCAAGCGCCATCTAC	1.08 RPM ratio (pull-down/input)
GATGATTGTTCTCCCAGCTGATGAATTTACCGAATCGAGTAAACAAATTTTCCTAATCTTTCTGTTCAAGCGCCATCTAC	1.37 RPM ratio (pull-down/input)

Sequence	binding signal
GATGATTGTTCTCCCAGCTGATGAATTATCTTTCTCGAGTAAACAAATTTTCCTAATCTTTCTGTTCAAGCGCCATCTAC	0.948 RPM ratio (pull-down/input)
GATGATTGTTCTCCCAGCTGATGAATTGACACCCTCGAGTAAACAAATTTTCCTAATCTTTCTGTTCAAGCGCCATCTAC	1.11 RPM ratio (pull-down/input)
GATGATTGTTCTCCCAGCTGATGAATTTGAGCGATCGAGTAAACAAATTTTCCTAATCTTTCTGTTCAAGCGCCATCTAC	0.84 RPM ratio (pull-down/input)
GATGATTGTTCTCCCAGCTGATGAATTAGTCGATTCGAGTAAACAAATTTTCCTAATCTTTCTGTTCAAGCGCCATCTAC	0.937 RPM ratio (pull-down/input)
GATGATTGTTCTCCCAGCTGATGAATTTAAGCAGTCGAGTAAACAAATTTTCCTAATCTTTCTGTTCAAGCGCCATCTAC	0.917 RPM ratio (pull-down/input)
GATGATTGTTCTCCCAGCTGATGAATTTGGATGGTCGAGTAAACAAATTTTCCTAATCTTTCTGTTCAAGCGCCATCTAC	0.869 RPM ratio (pull-down/input)
GATGATTGTTCTCCCAGCTGATGAATTGTGGACTTCGAGTAAACAAATTTTCCTAATCTTTCTGTTCAAGCGCCATCTAC	1.08 RPM ratio (pull-down/input)
GATGATTGTTCTCCCAGCTGATGAATTCGTTGATTCGAGTAAACAAATTTTCCTAATCTTTCTGTTCAAGCGCCATCTAC	0.954 RPM ratio (pull-down/input)
GATGATTGTTCTCCCAGCTGATGAATTAATCTGATCGAGTAAACAAATTTTCCTAATCTTTCTGTTCAAGCGCCATCTAC	0.897 RPM ratio (pull-down/input)
GATGATTGTTCTCCCAGCTGATGAATTTGGAACTTCGAGTAAACAAATTTTCCTAATCTTTCTGTTCAAGCGCCATCTAC	0.857 RPM ratio (pull-down/input)
GATGATTGTTCTCCCAGCTGATGAATTCCGGGGTTCGAGTAAACAAATTTTCCTAATCTTTCTGTTCAAGCGCCATCTAC	0.78 RPM ratio (pull-down/input)
GATGATTGTTCTCCCAGCTGATGAATTATTAGAGTCGAGTAAACAAATTTTCCTAATCTTTCTGTTCAAGCGCCATCTAC	1.01 RPM ratio (pull-down/input)
GATGATTGTTCTCCCAGCTGATGAATTGGGAGAATCGAGTAAACAAATTTTCCTAATCTTTCTGTTCAAGCGCCATCTAC	0.885 RPM ratio (pull-down/input)
GATGATTGTTCTCCCAGCTGATGAATTACCCCGTTCGAGTAAACAAATTTTCCTAATCTTTCTGTTCAAGCGCCATCTAC	0.887 RPM ratio (pull-down/input)
GATGATTGTTCTCCCAGCTGATGAATTACATGCTTCGAGTAAACAAATTTTCCTAATCTTTCTGTTCAAGCGCCATCTAC	1.3 RPM ratio (pull-down/input)
GATGATTGTTCTCCCAGCTGATGAATTGAAGCGTTCGAGTAAACAAATTTTCCTAATCTTTCTGTTCAAGCGCCATCTAC	0.916 RPM ratio (pull-down/input)
GATGATTGTTCTCCCAGCTGATGAATTTCCTGTTTCGAGTAAACAAATTTTCCTAATCTTTCTGTTCAAGCGCCATCTAC	0.949 RPM ratio (pull-down/input)
GATGATTGTTCTCCCAGCTGATGAATTGTGCTATTCGAGTAAACAAATTTTCCTAATCTTTCTGTTCAAGCGCCATCTAC	1.26 RPM ratio (pull-down/input)
GATGATTGTTCTCCCAGCTGATGAATTCGAGTTCTCGAGTAAACAAATTTTCCTAATCTTTCTGTTCAAGCGCCATCTAC	0.817 RPM ratio (pull-down/input)
GATGATTGTTCTCCCAGCTGATGAATTACTTGCCTCGAGTAAACAAATTTTCCTAATCTTTCTGTTCAAGCGCCATCTAC	0.977 RPM ratio (pull-down/input)
GATGATTGTTCTCCCAGCTGATGAATTTATCTAATCGAGTAAACAAATTTTCCTAATCTTTCTGTTCAAGCGCCATCTAC	1.32 RPM ratio (pull-down/input)

Sequence	binding signal
GATGATTGTTCTCCCAGCTGATGAATTTTTGTACTCGAGTAAACAAATTTTCCTAATCTTTCTGTTCAAGCGCCATCTAC	1.14 RPM ratio (pull-down/input)
GATGATTGTTCTCCCAGCTGATGAATTATGCAACTCGAGTAAACAAATTTTCCTAATCTTTCTGTTCAAGCGCCATCTAC	1.33 RPM ratio (pull-down/input)
GATGATTGTTCTCCCAGCTGATGAATTCCATGTGTCGAGTAAACAAATTTTCCTAATCTTTCTGTTCAAGCGCCATCTAC	0.939 RPM ratio (pull-down/input)
GATGATTGTTCTCCCAGCTGATGAATTTCACCGTTCGAGTAAACAAATTTTCCTAATCTTTCTGTTCAAGCGCCATCTAC	0.805 RPM ratio (pull-down/input)
GATGATTGTTCTCCCAGCTGATGAATTTATTGGTTCGAGTAAACAAATTTTCCTAATCTTTCTGTTCAAGCGCCATCTAC	1.47 RPM ratio (pull-down/input)
GATGATTGTTCTCCCAGCTGATGAATTCGTTTAGTCGAGTAAACAAATTTTCCTAATCTTTCTGTTCAAGCGCCATCTAC	0.947 RPM ratio (pull-down/input)
GATGATTGTTCTCCCAGCTGATGAATTCGTGAGTTCGAGTAAACAAATTTTCCTAATCTTTCTGTTCAAGCGCCATCTAC	0.814 RPM ratio (pull-down/input)
GATGATTGTTCTCCCAGCTGATGAATTAAAAGTCTCGAGTAAACAAATTTTCCTAATCTTTCTGTTCAAGCGCCATCTAC	0.816 RPM ratio (pull-down/input)
GATGATTGTTCTCCCAGCTGATGAATTACCGGGTTCGAGTAAACAAATTTTCCTAATCTTTCTGTTCAAGCGCCATCTAC	0.843 RPM ratio (pull-down/input)
GATGATTGTTCTCCCAGCTGATGAATTAATAGGGTCGAGTAAACAAATTTTCCTAATCTTTCTGTTCAAGCGCCATCTAC	0.823 RPM ratio (pull-down/input)
GATGATTGTTCTCCCAGCTGATGAATTTGGGTACTCGAGTAAACAAATTTTCCTAATCTTTCTGTTCAAGCGCCATCTAC	0.961 RPM ratio (pull-down/input)
GATGATTGTTCTCCCAGCTGATGAATTATGGACTTCGAGTAAACAAATTTTCCTAATCTTTCTGTTCAAGCGCCATCTAC	0.923 RPM ratio (pull-down/input)
GATGATTGTTCTCCCAGCTGATGAATTGTCCTTATCGAGTAAACAAATTTTCCTAATCTTTCTGTTCAAGCGCCATCTAC	1.13 RPM ratio (pull-down/input)
GATGATTGTTCTCCCAGCTGATGAATTTAACAGATCGAGTAAACAAATTTTCCTAATCTTTCTGTTCAAGCGCCATCTAC	0.842 RPM ratio (pull-down/input)
GATGATTGTTCTCCCAGCTGATGAATTTTGGGCTTCGAGTAAACAAATTTTCCTAATCTTTCTGTTCAAGCGCCATCTAC	0.804 RPM ratio (pull-down/input)
GATGATTGTTCTCCCAGCTGATGAATTGTGCACTTCGAGTAAACAAATTTTCCTAATCTTTCTGTTCAAGCGCCATCTAC	1.15 RPM ratio (pull-down/input)
GATGATTGTTCTCCCAGCTGATGAATTCCCTTAATCGAGTAAACAAATTTTCCTAATCTTTCTGTTCAAGCGCCATCTAC	0.924 RPM ratio (pull-down/input)
GATGATTGTTCTCCCAGCTGATGAATTCTATGCTTCGAGTAAACAAATTTTCCTAATCTTTCTGTTCAAGCGCCATCTAC	1.04 RPM ratio (pull-down/input)
GATGATTGTTCTCCCAGCTGATGAATTTTCCATGTCGAGTAAACAAATTTTCCTAATCTTTCTGTTCAAGCGCCATCTAC	0.844 RPM ratio (pull-down/input)
GATGATTGTTCTCCCAGCTGATGAATTCGTTGGATCGAGTAAACAAATTTTCCTAATCTTTCTGTTCAAGCGCCATCTAC	0.888 RPM ratio (pull-down/input)
GATGATTGTTCTCCCAGCTGATGAATTACCAGAGTCGAGTAAACAAATTTTCCTAATCTTTCTGTTCAAGCGCCATCTAC	0.959 RPM ratio (pull-down/input)
